Biological target: human Her3 on tumor cells (human, UniProt P21860 20-1342)
Experiment: cell-based or functional assay

B1: Her3-ADC-07 (other)
heavy: EVQLVESGGGVVQPGRSLRLSCAASGFTFSTYGMHWVRQAPGKGLEWVAVIWYDVSHKYYADSVKGRFTISRDNSKNTLSLQMNSLRAEDTAVYYCARDWGDPDAFDIWGQGTMVTVSS[… human IgG1 constant region …]
light: [… about 100 residues …][… about 100 residues …]
modifications: drug-linker DL-04 attached via S atom of a cysteine freed by TCEP reduction; 0-1 per light chain, position not stated; drug-linker DL-04 attached via S atoms of cysteines freed by TCEP reduction of disulfide bonds; 0-3 per heavy chain, positions not given
  EC50 of killing activity against NCI-H358 tumor cells (CCK8, 120 h): 183 nM
  EC50 of killing activity against PC-9 tumor cells (CCK8, 120 h): 49.3 nM
